The inconclusive results got no clear call from the source; some entries with a clear call stand among them for comparison. For part of these data: Potencies of inconclusive entries are doubtful fits and often do not repeat. The source made the active and inactive calls. Unless noted, the call rests on the fitted dose curve; in most records, active means well fitted curve in the direction sought with a large enough effect in the repeat runs; inconclusive means weak or mixed curves; inactive means no such curve, though single readings can be large; an effect the other way counts as inactive or inconclusive.
How the values were obtained:
[1] = qHTS assay to identify small molecule agonists of the constitutive androstane receptor (CAR) signaling pathway - cell viability counter screen (AID 1224836); further: nearly all actives have a fitted effect of over 45% in size; further: potency means the concentration at half of the fitted maximal effect
How it was run: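 Fluorescence from CellTiter-Fluor indicates live cells after 23 h exposure. The human hepatoma line expresses hCAR and a CYP2B6-2.2kb reporter. Incubation medium contains 0.75 uM PK11195 (final).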

[2] = qHTS assay to identify small molecule antagonists of the estrogen related receptor signaling pathway with the pleiotropic PPARgamma coactivator (PGC) from Tox21 10K library - cell viability counter screen (AID 1224840; active means well fitted cell-killing curve with a large enough effect in the repeat runs, not every such curve was filed as active; inconclusive means weak or mixed curves, or effect the other way; inactive means no such curve, though single readings can be large or run the other way; further: nearly all actives have a fitted effect of over 40% in size; further: potency means the concentration at half of the fitted maximal effect)
How it was run: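 Here the PGC/ERR cells serve as a cytotoxicity control: they are exposed to compounds for 17.5 hours at 37 C, and live-cell signal is quantified using CellTiter-Fluor fluorescence.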

[3] = target: Thyrotropin receptor (Homo sapiens) (UniProt P16473); assay: qHTS assay to identify small molecule agonists of the thyroid stimulating hormone receptor (TSHR) signaling pathway (AID 1224843; calls by dose curve; further: on the % scale 0 is the no-effect control and ±100 the full control effect; nearly all actives have a fitted effect of over 45% in size); details: TSHR-HEK293 cells, cAMP HTRF, agonist mode, 30 min; activation: at 92.4 µM (top of the series) unless noted
How it was run: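 TSHR-HEK293 cells in agonist mode, 30 min room-temperature step, then cAMP measured by competitive HTRF (cAMP-d2 with anti-cAMP cryptate) after 1 h at room temperature. Tested at 15 concentrations in triplicate.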

[4] = qHTS assay to identify small molecule agonists of H2AX (AID 1224845; active means well fitted activation curve with a large enough effect in the signal ratio in the repeat runs, not every such curve was filed as active; inconclusive means weak or mixed curves; the % refers to the signal ratio; further: potency means the concentration at half of the fitted maximal effect; on activation (H2AX phosphorylation): on the % scale 0 is the no-effect control and ±100 the full control effect); details: CHO-K1 phospho-H2AX Ser139 HTRF, 3 h; activation (H2AX phosphorylation): at 154 µM (top of the series) unless noted
How it was run: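 Wild-type CHO-K1 cells, plated overnight, exposed 3hr at 37C to 15 concentrations (0.76% DMSO final). Lysed, then HTRF anti-pH2AX (S139) cryptate and anti-H2AX-d2 antibodies, 24 hr room temperature; 665/620 nm emission read.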

[5] = qHTS RealTime-Glo MT Cell Viability Assay in HepG2 cells - 24 hour (AID 1224867); further: nearly all actives have a fitted effect of over 50% in size; further: potency means the concentration at half of the fitted maximal effect
How it was run: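 Viability was tracked continuously by NanoLuc luminescence from prosubstrate reduced by living HepG2 cells, at successive time points over 40 h of compound exposure. Cells with reagent were preincubated 5 h at 37 °C before compound addition.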

[6] = qHTS RealTime-Glo MT Cell Viability Assay in HEK293 cells - 32 hour (AID 1224868); further: nearly all actives have a fitted effect of over 50% in size; further: potency means the concentration at half of the fitted maximal effect
How it was run: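 Viability tracked continuously by luminescence as live cells reduce a prosubstrate for NanoLuc; HEK293 cells preincubated 5 h, compound-treated at 37 C, and read at 0, 8, 16, 24, 32 and 40 h.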

[7] = target: Nuclear receptor subfamily 1 group I member 3 (Homo sapiens) (UniProt Q14994); assay: qHTS assay to identify small molecule agonists of the constitutive androstane receptor (CAR) signaling pathway (AID 1224839); further: nearly all actives have a fitted effect of over 15% in size; further: potency means the concentration at half of the fitted maximal effect;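 on activation: HepG2 cells stably carrying human CAR and a CYP2B6 luciferase reporter; on the % scale 0 is the no-effect control and ±100 the full control effect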
How it was run: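 Stable hCAR/CYP2B6-2.2kb HepG2 line in DMEM with 10% FBS; compounds (15 concentrations) and 0.75 uM PK11195 final, 24 h at 37 C/5% CO2, then ONE-Glo luminescence after 30 min.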

[8] = qHTS assay to identify small molecule antagonists of the constitutive androstane receptor (CAR) signaling pathway - cell viability counter screen (AID 1224837); further: nearly all actives have a fitted effect of over 45% in size; further: potency means the concentration at half of the fitted maximal effect
How it was run: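 Using CellTiter-Fluor, viability is scored in HepG2 cells stably carrying hCAR and a 2.2kb CYP2B6 reporter after 23 hr compound exposure across 15 concentrations, with CITCO present at 50 nM.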

[9] = qHTS assay to identify small molecule agonists of the hypoxia (HIF-1) signaling pathway - cell viability counter screen (AID 1224844; calls by dose curve; further: potency means the concentration at half of the fitted maximal effect; nearly all actives have a fitted effect of over 50% in size)
How it was run: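 Multiplexed with the HRE beta-lactamase assay, this viability read used CellTiter-Glo luminescence (30 min, RT) on HRE-bla ME-180 cells treated 17 hrs with compounds in 0.5% dialyzed FBS medium.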

[10] = qHTS assay to identify small molecule antagonists of the estrogen related receptor (ERR) signaling pathway from Tox21 library (AID 1224848); further: potency means the concentration at half of the fitted maximal effect; nearly all actives have a fitted effect of over 50% in size
How it was run: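 ERR reporter cell line (from NTP) seeded 2,000 cells/well, rested 6 h at 37 C/5% CO2, then pin-dosed with compounds in DMSO. After 18 h at 37 C, ONE-Glo added; luminescence read after 30 min at room temperature.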

[11] = target: Nuclear receptor subfamily 1 group I member 3 (Homo sapiens) (UniProt Q14994); assay: qHTS assay to identify small molecule antagonists of the constitutive androstane receptor (CAR) signaling pathway (AID 1224838);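 further: HepG2 cells stably expressing hCAR with CYP2B6 luciferase reporter stimulated by CITCO; potency means the concentration at half of the fitted maximal effect; nearly all actives have a fitted effect of over 40% in size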
How it was run: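 Reporter luminescence was quantified after 24 h exposure of hCAR/CYP2B6-2.2kb double-stable HepG2 cells to compounds at 15 concentrations in the presence of 50 nM CITCO final.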

[12] = qHTS assay to identify small molecule agonists of the estrogen related receptor signaling pathway with the pleiotropic PPARgamma coactivator (PGC) from Tox21 10K library (AID 1224842); further: potency means the concentration at half of the fitted maximal effect; nearly all actives have a fitted effect of over 15% in size
How it was run: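 PGC/ERR reporter cell line, 2,000 cells per well, incubated 6 h at 37 C before 23 nL compound in DMSO was added. After 18 h at 37 C, One-Glo luminescence read following 30 min at room temperature.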

[13] = qHTS assay to identify small molecule agonists of the hypoxia (HIF-1) signaling pathway (AID 1224846; active means well fitted activation curve with a large enough effect in the signal ratio in the repeat runs, not every such curve was filed as active; inconclusive means weak or mixed curves; the % refers to the signal ratio; further: potency means the concentration at half of the fitted maximal effect); details: HRE-bla ME-180 cells, beta-lactamase ratio, 17 h; activation: at 76.8 µM (top of the series) unless noted
How it was run: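 Hypoxia-pathway activation was scored as increased beta-lactamase from an HRE-controlled reporter in ME-180 cells; plated at 2,000 cells per well with 0.5% dialyzed FBS, they were exposed 17 hrs to compounds and then given CCF4-AM.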

[14] = qHTS assay to identify small molecule agonists of H2AX - cell viability counter screen (AID 1224847; calls by dose curve; further: potency means the concentration at half of the fitted maximal effect; nearly all actives have a fitted effect of over 30% in size)
How it was run: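 Viability of CHO-K1 (wild type) cells after 3 hr compound exposure was measured by CellTiter-Glo luminescence.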

[15] = qHTS assay to identify small molecule antagonists of the estrogen related receptor signaling pathway with the pleiotropic PPARgamma coactivator (PGC) from Tox21 10K library (AID 1224841; call rule not given here; further: potency means the concentration at half of the fitted maximal effect)
How it was run: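 Each well held 2,000 PGC/ERR cells, pre-incubated six hours (37 C, 5% CO2). Test substances in DMSO were added by pin tool and left for 18 h at 37 C before luciferase detection by One-Glo.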
Tags describe the fitted curve by direction and shape or compound fluorescence and quenching.

Chain of UniProt P16473 (P16473 whole entry, looked up): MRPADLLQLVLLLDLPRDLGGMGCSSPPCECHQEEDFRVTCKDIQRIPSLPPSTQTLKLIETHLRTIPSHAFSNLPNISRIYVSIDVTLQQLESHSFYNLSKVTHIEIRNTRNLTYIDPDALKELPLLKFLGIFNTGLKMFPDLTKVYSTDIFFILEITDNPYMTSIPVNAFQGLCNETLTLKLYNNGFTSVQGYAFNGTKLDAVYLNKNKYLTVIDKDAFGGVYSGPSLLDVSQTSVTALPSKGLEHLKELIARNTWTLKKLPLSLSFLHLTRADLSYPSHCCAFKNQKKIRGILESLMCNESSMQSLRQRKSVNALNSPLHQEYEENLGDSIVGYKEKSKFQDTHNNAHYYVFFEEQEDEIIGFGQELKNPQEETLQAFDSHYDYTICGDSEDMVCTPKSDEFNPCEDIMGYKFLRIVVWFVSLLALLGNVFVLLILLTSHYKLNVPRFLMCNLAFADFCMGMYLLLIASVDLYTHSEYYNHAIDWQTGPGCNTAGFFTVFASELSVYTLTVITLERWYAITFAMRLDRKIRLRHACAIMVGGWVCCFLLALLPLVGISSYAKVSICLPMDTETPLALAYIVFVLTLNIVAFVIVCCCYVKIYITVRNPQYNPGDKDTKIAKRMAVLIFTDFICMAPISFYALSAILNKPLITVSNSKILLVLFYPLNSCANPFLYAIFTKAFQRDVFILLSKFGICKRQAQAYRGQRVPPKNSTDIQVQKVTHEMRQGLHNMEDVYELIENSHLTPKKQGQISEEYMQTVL
Chain of UniProt Q14994 (Q14994 whole entry, looked up): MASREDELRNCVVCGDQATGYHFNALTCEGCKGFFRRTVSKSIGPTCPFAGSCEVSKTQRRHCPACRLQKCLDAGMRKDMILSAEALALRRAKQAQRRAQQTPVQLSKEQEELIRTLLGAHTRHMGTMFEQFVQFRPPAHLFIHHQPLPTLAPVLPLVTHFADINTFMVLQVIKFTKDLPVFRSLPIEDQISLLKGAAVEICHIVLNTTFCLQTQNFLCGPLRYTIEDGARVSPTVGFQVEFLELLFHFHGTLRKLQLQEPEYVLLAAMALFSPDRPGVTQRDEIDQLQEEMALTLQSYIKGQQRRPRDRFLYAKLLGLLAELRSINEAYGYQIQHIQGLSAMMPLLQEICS

O=[N+]([O-])c1cc[n+]([O-])cc1
Potency [1]: active: 30.6 µM
Potency [2]: inconclusive: 68.6 µM [cytotoxic, partial curve, poor fit]
activation [3]: inconclusive: 25.6%
Potency [4]: inconclusive: 71.3 µM [falling, partial curve]
Potency [5]: inconclusive: 54.9 µM [falling, single point]
Potency [6]: inactive

CC(=O)[C@H]1CC[C@H]2[C@@H]3C[C@H](C)C4=CC(=O)CC[C@]4(C)[C@H]3[C@@H](O)C[C@]12C
Potency [1]: inactive
Potency [7]: inconclusive: 16.8 µM [activator, partial curve]

CC[C@]12CCCN3CCc4c(n(c5ccccc45)C(=O)C1)[C@@H]32
Potency [1]: inconclusive: 15 µM [cytotoxic, partial curve]
Potency [8]: inconclusive: 13.3 µM [cytotoxic, partial curve]
Potency [9]: inconclusive: 26.8 µM [cytotoxic, single point]
activation (H2AX phosphorylation) [4]: inconclusive: -15.5% [at 70.9 µM]
Potency [10]: inconclusive: 7.5 µM [inhibitor, full curve]

O=C(O)CN(CCCN(CC(=O)O)CC(=O)O)CC(=O)O
Potency [8]: inconclusive: 6.51 µM [cytotoxic, partial curve, poor fit]

COc1cc([N+](=O)[O-])ccc1N
Potency [1]: inconclusive: 27.3 µM [cytotoxic, partial curve]
Potency [8]: inconclusive: 34.4 µM [cytotoxic, partial curve]
Potency [7]: inactive
Potency [2]: inconclusive: 48.6 µM [cytotoxic, partial curve]
Potency [4]: inactive
Potency [5]: inactive

O=[N+]([O-])c1ccc(O)cc1C(F)(F)F
Potency [1]: inconclusive: 21.7 µM [cytotoxic, single point]
Potency [8]: inconclusive: 19.3 µM [cytotoxic, single point]
Potency [11]: inconclusive: 17.2 µM [inhibitor, single point]
Potency [12]: inconclusive: 0.0193 µM [activator, full curve, poor fit]
Potency [13]: inconclusive: 0.219 µM [falling, single point]
Potency [14]: inconclusive: 8.98 µM [cytotoxic, full curve]
Potency [10]: active: 6.11 µM

CC(=O)Oc1cc(C(C)C)c(OCCN(C)C)cc1C
Potency [1]: inconclusive: 13.3 µM [rising, single point]
Potency [7]: inconclusive: 13.3 µM [activator, single point]
Potency [6]: inconclusive: 21.3 µM [cytotoxic, partial curve]

Cc1onc(-c2ccccc2)c1C(=O)Cl
Potency [1]: inconclusive: 13.3 µM [rising, single point]
Potency [8]: inactive
Potency [7]: inconclusive: 13.3 µM [activator, single point]
Potency [13]: inconclusive: 26.8 µM [activator, single point]

Cc1nc(-c2ccccn2)ncc1C(=O)Nn1cc(C)c2cc(F)ccc21
Potency [1]: inconclusive: 38.6 µM [cytotoxic, partial curve, poor fit]
Potency [8]: active: 24.3 µM
Potency [2]: inconclusive: 54.5 µM [cytotoxic, partial curve]
Potency [15]: active: 38.6 µM
Potency [3]: inactive
Potency [9]: inconclusive: 61.6 µM [cytotoxic, partial curve, poor fit]
Potency [4]: inconclusive: 11.3 µM [falling, single point]
Potency [13]: inconclusive: 77.6 µM [rising, single point]

Cc1c(C)n(CCN(C)C)c2ccc(C(=O)OCCN(C)C)cc12
Potency [1]: inconclusive: 33.5 µM [cytotoxic, single point]
Potency [8]: inconclusive: 33.5 µM [cytotoxic, partial curve]
Potency [2]: inconclusive: 13.3 µM [cytotoxic, full curve]
Potency [15]: inconclusive: 13.3 µM [falling, partial curve, poor fit]
Potency [9]: inconclusive: 26.8 µM [cytotoxic, single point]
Potency [13]: inconclusive: 26.8 µM [falling, partial curve, poor fit]
Potency [5]: inactive

NS(=O)(=O)c1cc2c(cc1Cl)NCNS2(=O)=O
Potency [1]: inconclusive: 13.3 µM [cytotoxic, single point]
Potency [15]: inconclusive: 1.51 µM [falling, single point]

COc1ccccc1N1CCN(CCCNc2cc(=O)n(C)c(=O)n2C)CC1
Potency [1]: inactive
Potency [4]: inactive

C[C@]12CCC(=O)C=C1[C@@H]1C[C@@H]1[C@H]1[C@@H]3[C@@H]4C[C@@H]4[C@@]4(CCC(=O)O4)[C@@]3(C)CC[C@@H]12
Potency [1]: inactive
Potency [15]: inconclusive: 33.5 µM [falling, single point]
Potency [14]: inconclusive: 24.7 µM [cytotoxic, partial curve]
Potency [6]: inconclusive: 23.9 µM [cytotoxic, partial curve]

Brc1c(NC2=NCCN2)ccc2nccnc12
Potency [1]: inactive
Potency [2]: inactive
Potency [3]: inactive

c1cc(CN2CCCCC2)cc(OCCCNc2nc3ccccc3s2)c1
Potency [1]: inconclusive: 33.5 µM [cytotoxic, partial curve, poor fit]
Potency [8]: inconclusive: 29.8 µM [cytotoxic]
Potency [2]: inactive
Potency [15]: inactive
Potency [14]: inconclusive: 55.2 µM [cytotoxic, single point]
Potency [5]: inconclusive: 21.3 µM [falling, partial curve]
